Experiments:
[1] = system: E. coli BW25113 isolate 18-rob(A70T)yohJ(L109R) dnaK(V377G) 927777(C > T) acrR(A191fs); conditions: 20% v/v BMA; strain 18
[2] = system: E. coli BW25113 isolate 6-soxR(A146del), acrR(indels); conditions: 20% v/v BMA; strain 6
[3] = system: gene transcription in wild type; experiment: Transcriptome analysis with added BMA, wild type; conditions: in the presence of BMA; wild type strain
Method: 2. […] Incubate at 37° C. and 250 rpm.
Levels of transcription of acrA and acrB were enhanced in the absence of BMA, however this was very variable. For the wild type strain, exposure to BMA actually reduces the expression level of the global regulator.

[4] = system: E. coli BW25113 isolate 7-rob(A70V) acrR(indels); conditions: 20% v/v BMA; strain 7

## C=C(C)C(=O)OCCCC [BMA, butyl 2-methylprop-2-enoate]
[1]
  Growth rate: 0.709 ± 0.015 h⁻¹
  Lag time: 5 h
  Max cell concentration: 1.036 ± 0.046 g/L
[2]
  Growth rate: 0.620 ± 0.029 h⁻¹
  Lag time: 4 h
  Max cell concentration: 0.588 ± 0.029 g/L
[3]
  Transcription of ibpA, ibpB, ynfM, yibT, pspA, bssR, ybfA, raiA, IdhA, pspB pspC and pspD: reduced
[4]
  Growth rate: 0.613 ± 0.033 h⁻¹
  Lag time: 4 h
  Max cell concentration: 0.568 ± 0.050 g/L

From patent US11781160B2, “Methods for the production of methacrylates” (priority 2018, dated 2023)
